According to the supplement of paper PMC10126150:
Values marked as one replicate rest on one cluster of the flow cell; about a third of the high ones do not repeat.

System: ATP
Assay: switch fluorescence ratio, 500 uM ATP over buffer (Cy3 cluster intensity, sum of 5 cycles each) (fold (ratio)); higher = stronger signal-on switching upon ATP binding; sequences stand for … in TCGTCGGCAGCGTCAGATGTGTATAAGAGACAGTTTTTTTTTTTTTTTTTTTTTTTTT…TC
Conditions: aptamer strand: ATP DNA aptamer (quencher-CACCTGGGGGAGTATTGCGGAGGAAGG + anchor), 100 nM annealed; ATP concentration: 500 uM; one replicate
Procedure, shortened: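 After annealing to 100 nM quencher-labelled ATP aptamer, Cy3-labelled switching-strand clusters on a modified Illumina MiSeq flow-cell were imaged in selection buffer. A second image followed after 15 min with 500 uM ATP at 22 °C, and five such buffer/ATP cycles were done, each separated by NaOH stripping and re-annealing. The fluorescence ratio, averaged per switch-domain sequence, is summed target-cycle over summed buffer-cycle Cy3 intensity per cluster, with clusters outside 100-1000 RFU excluded.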
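Note: ATP exposure 15 min at 22 °C before imaging.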

TAATGGCCAT showed a switch fluorescence ratio of 1.02.
CAATCTCCAT gave a switch fluorescence ratio of 1.02.
Work on AGTCCCGGAG yielded a switch fluorescence ratio of 1.03.
Sequence GCGGATTTGC has a switch fluorescence ratio of 0.998.
Work on GTAGCAGGTT yielded a switch fluorescence ratio of 1.04.
Work on TCCTTAAGGT yielded a switch fluorescence ratio of 1.06.
Sequence ATCGGCGGCC has a switch fluorescence ratio of 1.
CCCGATGGGC was tested, and the switch fluorescence ratio was 0.982.
TGCTGAGCT showed a switch fluorescence ratio of 1.06.
Work on AGGAGAAGGT yielded a switch fluorescence ratio of 0.996.
TAATAGGTAT showed a switch fluorescence ratio of 1.
For CCCGAGGGTG, the switch fluorescence ratio was 1.38.
AGTTATTCC showed a switch fluorescence ratio of 1.18.
GCAGCTTAGC was tested, and the switch fluorescence ratio was 1.02.
Work on ACGCTTCGCA yielded a switch fluorescence ratio of 1.13.
ACGCTCCTGT showed a switch fluorescence ratio of 1.03.
With GCTTAACCGG the switch fluorescence ratio was 0.966.
With AGCCGCTGAA the switch fluorescence ratio was 1.1.
In the case of TACGAAAAAG, the switch fluorescence ratio is reported as 1.09.
Work on TCTGTCGCCG yielded a switch fluorescence ratio of 1.01.
In the case of ACTCGGACGA, the switch fluorescence ratio is reported as 1.04.
GCGCTCTTTT gave a switch fluorescence ratio of 0.995.
TTGTAGCGAC was tested, and the switch fluorescence ratio was 1.06.
In the case of GGGTTTCCGC, the switch fluorescence ratio is reported as 1.08.
TATGGCCGTT showed a switch fluorescence ratio of 1.01.
Work on TGTAAAGGGC yielded a switch fluorescence ratio of 1.03.
TATGTTTCCA gave a switch fluorescence ratio of 1.13.
CGGGCTTGAA gave a switch fluorescence ratio of 1.01.
With ATTTTACATA the switch fluorescence ratio was 1.03.
CTTCCCTAAG gave a switch fluorescence ratio of 1.07.
AACAGGGTGT showed a switch fluorescence ratio of 1.07.
With TAGGAGAAAT the switch fluorescence ratio was 1.
Work on TGACTAAAAA yielded a switch fluorescence ratio of 1.03.
CTAAGTAGTT showed a switch fluorescence ratio of 0.981.
For GCGAAGCAAG, the switch fluorescence ratio was 1.05.
TAGAGTTAGA was tested, and the switch fluorescence ratio was 0.955.
For ACCCCTTGGA, the switch fluorescence ratio was 1.06.
CAGCTGCGGC was tested, and the switch fluorescence ratio was 1.01.
TAGTGTTGT gave a switch fluorescence ratio of 1.02.
GTGATCAGCC gave a switch fluorescence ratio of 1.08.
AAACTTGAAG showed a switch fluorescence ratio of 1.02.
With TGTTCTAAAA the switch fluorescence ratio was 1.05.
For GCAGCGTCA, the switch fluorescence ratio was 1.13.
With TATCGATCCC the switch fluorescence ratio was 1.05.
For ACTCCACAAA, the switch fluorescence ratio was 3.63.
In the case of TGTGTCATTT, the switch fluorescence ratio is reported as 1.02.
For CGGAACGAGG, the switch fluorescence ratio was 1.02.
In the case of TAATTGTATG, the switch fluorescence ratio is reported as 1.02.
TCGGAGGTTA showed a switch fluorescence ratio of 1.6.
CTAACTAGGG was tested, and the switch fluorescence ratio was 0.964.
ACTGCGCTTA gave a switch fluorescence ratio of 2.41.
ACGCGGTATT showed a switch fluorescence ratio of 1.02.
For CCGCGTTGCC, the switch fluorescence ratio was 1.44.
CATCAGCCGG gave a switch fluorescence ratio of 1.09.
With AAGATATCTC the switch fluorescence ratio was 0.979.
Work on CATGATTCAG yielded a switch fluorescence ratio of 0.98.
GTGAATTCGC was tested, and the switch fluorescence ratio was 0.984.
Work on GGGCGAGTCG yielded a switch fluorescence ratio of 0.987.
Work on TGTGTGCGGA yielded a switch fluorescence ratio of 1.02.
Work on TGAAGCCAC yielded a switch fluorescence ratio of 1.11.
Work on CAGGCGCTGG yielded a switch fluorescence ratio of 0.988.
In the case of TGGATCGACT, the switch fluorescence ratio is reported as 1.02.
AGGCTTAGGA showed a switch fluorescence ratio of 0.958.
For TACCCTAGGA, the switch fluorescence ratio was 1.07.
ATGAGCAGGA showed a switch fluorescence ratio of 1.07.
In the case of CGTTCCCCAT, the switch fluorescence ratio is reported as 1.01.
In the case of CGCGATGCTA, the switch fluorescence ratio is reported as 3.83.
Work on GAACTTTGAA yielded a switch fluorescence ratio of 0.999.
TTAGGAATC showed a switch fluorescence ratio of 1.21.
Sequence ACTAATATT has a switch fluorescence ratio of 1.03.
TATTTTTGG showed a switch fluorescence ratio of 0.989.
Work on CTGAGGATAT yielded a switch fluorescence ratio of 1.08.
For ATGGCGCT, the switch fluorescence ratio was 0.941.
ATTATTGACA was tested, and the switch fluorescence ratio was 0.975.
In the case of ACGCTGGCCT, the switch fluorescence ratio is reported as 1.06.
Work on ATGAAGTGCT yielded a switch fluorescence ratio of 1.
TGAGCAAGTT showed a switch fluorescence ratio of 1.
Work on TAAGTTTCAG yielded a switch fluorescence ratio of 1.02.
For CGTCCGGCCC, the switch fluorescence ratio was 1.14.
For TGCGTTATTT, the switch fluorescence ratio was 0.952.
With TCACCGAGAG the switch fluorescence ratio was 1.
With GGGCGTCCTA the switch fluorescence ratio was 1.
In the case of CCTAGCGAGG, the switch fluorescence ratio is reported as 1.09.
Sequence TCACCCTAAT has a switch fluorescence ratio of 1.06.
ACTAGCAGTT gave a switch fluorescence ratio of 1.01.
Sequence GGTTAGACTG has a switch fluorescence ratio of 1.08.
TGGAAGCATA showed a switch fluorescence ratio of 2.05.
GATTTGTGCG was tested, and the switch fluorescence ratio was 0.971.
TTCCGACACT was tested, and the switch fluorescence ratio was 1.55.
For CGCCATCTCT, the switch fluorescence ratio was 1.23.
ATGTGTAGCA showed a switch fluorescence ratio of 1.01.
In the case of TTCCAGCTGA, the switch fluorescence ratio is reported as 1.04.
ACACCGCTTG was tested, and the switch fluorescence ratio was 1.14.
For CCGCAGGGGC, the switch fluorescence ratio was 3.95.
ATTAGGTTAC gave a switch fluorescence ratio of 1.07.
AAACGCTCGG gave a switch fluorescence ratio of 1.03.
TATGCTTTCG gave a switch fluorescence ratio of 1.04.
Sequence CTAAGGTCGG has a switch fluorescence ratio of 0.93.
TGTTGTTGAG was tested, and the switch fluorescence ratio was 0.987.
Work on ATGAGGCTGG yielded a switch fluorescence ratio of 0.995.
For ATACCCTTGC, the switch fluorescence ratio was 1.5.
GGGTTCCGT gave a switch fluorescence ratio of 0.956.
TTTCGGCTC showed a switch fluorescence ratio of 1.
In the case of ACAGCTCTTT, the switch fluorescence ratio is reported as 1.03.
Work on GACCACGGGT yielded a switch fluorescence ratio of 1.04.
With TCACTAACCG the switch fluorescence ratio was 1.1.
For ATTACATTTA, the switch fluorescence ratio was 1.
CATCTAGACG gave a switch fluorescence ratio of 0.988.
TACAACGCCG was tested, and the switch fluorescence ratio was 1.18.
GTTGGTGTCT was tested, and the switch fluorescence ratio was 0.959.
Sequence TATGCCCGTT has a switch fluorescence ratio of 0.947.
AGTCGTGGTA was tested, and the switch fluorescence ratio was 0.993.
ATCGGCGGGT showed a switch fluorescence ratio of 1.01.
Work on TTCCTCACGA yielded a switch fluorescence ratio of 2.12.
GGAACAAAGT gave a switch fluorescence ratio of 0.991.
Work on AAGTTCCCGG yielded a switch fluorescence ratio of 0.994.
ATATGACCCT gave a switch fluorescence ratio of 1.07.
In the case of CAGATCTAGC, the switch fluorescence ratio is reported as 1.02.
In the case of ATCAATGT, the switch fluorescence ratio is reported as 1.03.
For CTTATGAGTC, the switch fluorescence ratio was 1.02.
Sequence ATCCTAGAGC has a switch fluorescence ratio of 0.96.
In the case of AATCCTAACT, the switch fluorescence ratio is reported as 0.977.
For GGTGCAGCCT, the switch fluorescence ratio was 0.997.
With TGACACTTC the switch fluorescence ratio was 0.99.
CGATATCCGT gave a switch fluorescence ratio of 1.02.
Work on CAACCGGCGC yielded a switch fluorescence ratio of 1.16.
For TGAGCTTTGG, the switch fluorescence ratio was 1.
For AACTGACCCA, the switch fluorescence ratio was 1.08.
CATTGGGATG showed a switch fluorescence ratio of 1.
In the case of CGCTTCATGG, the switch fluorescence ratio is reported as 0.98.
Sequence GATACAAAGT has a switch fluorescence ratio of 1.04.
TTACCGCGGT was tested, and the switch fluorescence ratio was 0.961.
In the case of CTTACTCCAT, the switch fluorescence ratio is reported as 1.47.
AGTCGATGCC was tested, and the switch fluorescence ratio was 0.991.
GCCAACCTGG gave a switch fluorescence ratio of 0.998.
Sequence ACAAGTGTGG has a switch fluorescence ratio of 0.992.
Sequence TAACATAGTG has a switch fluorescence ratio of 0.962.
With ATTGAGAGC the switch fluorescence ratio was 1.04.
In the case of AGCACAATAT, the switch fluorescence ratio is reported as 1.26.
Work on GTACGGATGT yielded a switch fluorescence ratio of 0.98.
In the case of TGCCTGTGGT, the switch fluorescence ratio is reported as 0.96.
Work on ACGAGTGTG yielded a switch fluorescence ratio of 1.05.
GATGGGCTTA gave a switch fluorescence ratio of 1.04.
GCAACTGGGA gave a switch fluorescence ratio of 1.03.
ATTTTCTTAC showed a switch fluorescence ratio of 1.09.
In the case of TGATCGGAAT, the switch fluorescence ratio is reported as 1.12.
CAGACCGTTG gave a switch fluorescence ratio of 1.
For ATACGTACTC, the switch fluorescence ratio was 1.62.
For TCTAACGGGA, the switch fluorescence ratio was 1.05.
CCAGTTGGGC showed a switch fluorescence ratio of 1.03.
TGGACGCTGG showed a switch fluorescence ratio of 1.07.
For GACACCCGGG, the switch fluorescence ratio was 1.01.
Sequence GGACAGTATC has a switch fluorescence ratio of 1.04.
With TGTGTCTTGC the switch fluorescence ratio was 0.964.
Sequence TGGGGCATCC has a switch fluorescence ratio of 1.09.
Work on TCATTTGCTG yielded a switch fluorescence ratio of 1.08.
TCCTGTAAAG gave a switch fluorescence ratio of 1.04.
TTAATTAGAC was tested, and the switch fluorescence ratio was 1.01.
For TATATCACG, the switch fluorescence ratio was 1.
AGTAGGCTTA showed a switch fluorescence ratio of 0.995.
In the case of GACCCTAATT, the switch fluorescence ratio is reported as 1.02.
Work on CAGCGCATAA yielded a switch fluorescence ratio of 2.51.
With CGGCAGCACA the switch fluorescence ratio was 2.42.
In the case of TTGGTTAACC, the switch fluorescence ratio is reported as 0.993.
GCAATGTCGC showed a switch fluorescence ratio of 1.07.
For TTCCGGTTCA, the switch fluorescence ratio was 0.975.
TTCTTAAACC gave a switch fluorescence ratio of 0.997.
CTTAAGATGC showed a switch fluorescence ratio of 1.42.
With CCAGTTAGGG the switch fluorescence ratio was 1.07.
CTCGGTGCAC was tested, and the switch fluorescence ratio was 1.05.
Work on ATTTTACGGA yielded a switch fluorescence ratio of 1.02.
GATCCACCCC gave a switch fluorescence ratio of 1.12.
Sequence CATAACGTGC has a switch fluorescence ratio of 1.05.
ATACTCTTCA gave a switch fluorescence ratio of 1.06.
TCCATCATGT showed a switch fluorescence ratio of 1.01.
In the case of GAGGTTTCGA, the switch fluorescence ratio is reported as 0.983.
For ACAGAGGTAA, the switch fluorescence ratio was 1.02.
TCAGAGCGTC was tested, and the switch fluorescence ratio was 1.07.
Work on TGGCCCGTAA yielded a switch fluorescence ratio of 1.09.
With GTTAACTAGG the switch fluorescence ratio was 0.996.
In the case of CGCCTGAGTA, the switch fluorescence ratio is reported as 0.951.
GATGGAGAGC showed a switch fluorescence ratio of 1.02.
CTTATTTAGG gave a switch fluorescence ratio of 0.926.
TTTATGTGCT gave a switch fluorescence ratio of 1.01.
Work on GTCGGGGACA yielded a switch fluorescence ratio of 0.961.
CCTGGGACGG gave a switch fluorescence ratio of 1.01.
CGTGGAAGCG was tested, and the switch fluorescence ratio was 0.985.
In the case of GAGCGACGTT, the switch fluorescence ratio is reported as 0.935.
Sequence CTTGATTGGA has a switch fluorescence ratio of 1.01.
GTGGGATTGT was tested, and the switch fluorescence ratio was 0.969.
TAGCTCAACG showed a switch fluorescence ratio of 0.989.
Sequence CCGGGCGGTA has a switch fluorescence ratio of 1.15.
Work on GATTTGTTAA yielded a switch fluorescence ratio of 1.04.
ATACTCATGT gave a switch fluorescence ratio of 1.03.
Sequence TCTCGTCGCA has a switch fluorescence ratio of 1.12.
Work on TGATGTTTCT yielded a switch fluorescence ratio of 1.01.
With GAGAATTTTA the switch fluorescence ratio was 0.995.
CCGTTATAAA showed a switch fluorescence ratio of 1.14.
ACGCTCTCTC gave a switch fluorescence ratio of 1.31.
With TCCTAATTGG the switch fluorescence ratio was 0.952.
For AACCTTAA, the switch fluorescence ratio was 1.28.
